Reference: paper PMC9911399, “Two distinct binding modes provide the RNA-binding protein RbFox with extraordinary sequence specificity”
Substitutions are numbered along the chain they refer to; changes in the protein carry UniProt numbers. The list shows a part of the results.

T1: RBFOX1 RRM RbFoxmut (Fox-RRM*) (Homo sapiens, UniProt Q9NWB1 109-208, R118D;E147R;N151S;E152T)
T1 sequence: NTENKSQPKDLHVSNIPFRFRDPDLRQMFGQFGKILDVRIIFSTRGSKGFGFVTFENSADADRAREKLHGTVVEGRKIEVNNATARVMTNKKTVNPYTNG

B1: AGCGCAC (DNA:RNA)
RNA: GGGAGACCGGAAUUCAGAUUGUCCAGCGCACUUAAAUCCCGUCGUAGCCACCA
DNA 1: CAATCTGAATTCCGGTCTCCC
DNA 2: TGGTGGCTACGACGGGATT
B2: UGCAAUA (DNA:RNA)
RNA: B1 RNA with A25U, G28A, C29A, A30U, C31A
DNA 1: CAATCTGAATTCCGGTCTCCC
DNA 2: TGGTGGCTACGACGGGATT
B3: AUAACGC (DNA:RNA)
RNA: B1 RNA with G26U, C27A, G28A, A30G
DNA 1: CAATCTGAATTCCGGTCTCCC
DNA 2: TGGTGGCTACGACGGGATT
B4: GGUUUGG (DNA:RNA)
RNA: B1 RNA with A25G, C27U, G28U, C29U, A30G, C31G
DNA 1: CAATCTGAATTCCGGTCTCCC
DNA 2: TGGTGGCTACGACGGGATT
B5: AUGAAUG (DNA:RNA)
RNA: B1 RNA with G26U, C27G, G28A, C29A, A30U, C31G
DNA 1: CAATCTGAATTCCGGTCTCCC
DNA 2: TGGTGGCTACGACGGGATT
B6: CUUACAA (DNA:RNA)
RNA: B1 RNA with A25C, G26U, C27U, G28A, C31A
DNA 1: CAATCTGAATTCCGGTCTCCC
DNA 2: TGGTGGCTACGACGGGATT
B7: AUGCAUC (DNA:RNA)
RNA: B1 RNA with G26U, C27G, G28C, C29A, A30U
DNA 1: CAATCTGAATTCCGGTCTCCC
DNA 2: TGGTGGCTACGACGGGATT
B8: UGGUGAU (DNA:RNA)
RNA: B1 RNA with A25U, C27G, G28U, C29G, C31U
DNA 1: CAATCTGAATTCCGGTCTCCC
DNA 2: TGGTGGCTACGACGGGATT
B9: UAUACAC (DNA:RNA)
RNA: B1 RNA with A25U, G26A, C27U, G28A
DNA 1: CAATCTGAATTCCGGTCTCCC
DNA 2: TGGTGGCTACGACGGGATT
B10: UCGUUGA (DNA:RNA)
RNA: GGGAGACCGGAAUUCAGAUUGUCCUCGUUGAUUAAAUCCCGUCGUAGCCACCA
DNA 1: CAATCTGAATTCCGGTCTCCC
DNA 2: TGGTGGCTACGACGGGATT
B11: CUUACCG (DNA:RNA)
RNA: B1 RNA with A25C, G26U, C27U, G28A, A30C, C31G
DNA 1: CAATCTGAATTCCGGTCTCCC
DNA 2: TGGTGGCTACGACGGGATT
B12: AGCGGUC (DNA:RNA)
RNA: B1 RNA with C29G, A30U
DNA 1: CAATCTGAATTCCGGTCTCCC
DNA 2: TGGTGGCTACGACGGGATT
B13: UAAUAUA (DNA:RNA)
RNA: B10 RNA with C26A, G27A, U29A, G30U
DNA 1: CAATCTGAATTCCGGTCTCCC
DNA 2: TGGTGGCTACGACGGGATT
B14: UGGCCGC (DNA:RNA)
RNA: B1 RNA with A25U, C27G, G28C, A30G
DNA 1: CAATCTGAATTCCGGTCTCCC
DNA 2: TGGTGGCTACGACGGGATT
B15: AGCCAGU (DNA:RNA)
RNA: B1 RNA with G28C, C29A, A30G, C31U
DNA 1: CAATCTGAATTCCGGTCTCCC
DNA 2: TGGTGGCTACGACGGGATT
B16: GGAAUCG (DNA:RNA)
RNA: B1 RNA with A25G, C27A, G28A, C29U, A30C, C31G
DNA 1: CAATCTGAATTCCGGTCTCCC
DNA 2: TGGTGGCTACGACGGGATT
B17: GUCUCGC (DNA:RNA)
RNA: B1 RNA with A25G, G26U, G28U, A30G
DNA 1: CAATCTGAATTCCGGTCTCCC
DNA 2: TGGTGGCTACGACGGGATT
B18: AGAAGAG (DNA:RNA)
RNA: B1 RNA with C27A, G28A, C29G, C31G
DNA 1: CAATCTGAATTCCGGTCTCCC
DNA 2: TGGTGGCTACGACGGGATT
B19: AACCUGA (DNA:RNA)
RNA: B10 RNA with U25A, C26A, G27C, U28C
DNA 1: CAATCTGAATTCCGGTCTCCC
DNA 2: TGGTGGCTACGACGGGATT
B20: GGGAGGG (DNA:RNA)
RNA: B10 RNA with U25G, C26G, U28A, U29G, A31G
DNA 1: CAATCTGAATTCCGGTCTCCC
DNA 2: TGGTGGCTACGACGGGATT

molecular target: T1, RBFOX1 RRM RbFoxmut (Fox-RRM*); assay: EMSA; HiTS-Eq, 1 nM pool, 10 min; buffer printed only for the single-RNA assays: 10 mM Tris pH 7.5, 150 mM NaCl, 3.4 mM EDTA, 0.001% NP-40, 30 C; settings: tags: His6 N-terminal (pET28a); label: 5' 32P
Method in brief: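 Purified RbFox RRM, wild type or mutant, was incubated for 10 min in 50 µL with 1 nM of a 5′-radiolabelled RNA pool carrying 7 randomized nucleotides, whose flanks were annealed to DNA oligonucleotides, over a series of increasing protein concentrations. Unbound RNA was resolved on 8% native PAGE, cut out, reverse-transcribed, barcoded by PCR and sequenced on an Illumina HiSeq 2500. Relative association constants were derived from changes in read counts for each RNA species versus the control reaction and normalised to the cognate motif.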

Binder | binding signal
B1 | 0.0743 KA relative to UGCAUGU
B2 | 0.121 KA relative to UGCAUGU
B3 | 0.0979 KA relative to UGCAUGU
B4 | 0.277 KA relative to UGCAUGU
B5 | 1.02 KA relative to UGCAUGU
B6 | 0.0794 KA relative to UGCAUGU
B7 | 0.446 KA relative to UGCAUGU
B8 | 0.0945 KA relative to UGCAUGU
B9 | 0.0888 KA relative to UGCAUGU
B10 | 0.107 KA relative to UGCAUGU
B11 | 0.094 KA relative to UGCAUGU
B12 | 0.154 KA relative to UGCAUGU
B13 | 0.081 KA relative to UGCAUGU
B14 | 0.129 KA relative to UGCAUGU
B15 | 0.0972 KA relative to UGCAUGU
B16 | 0.387 KA relative to UGCAUGU
B17 | 0.169 KA relative to UGCAUGU
B18 | 0.135 KA relative to UGCAUGU
B19 | 0.0413 KA relative to UGCAUGU
B20 | 0.0607 KA relative to UGCAUGU
